# According to PubChem BioAssay AID624417 (National Center for Advancing Translational Sciences (NCATS), 2012):
# Hit rate of the full screen: of about 410,000 compounds, about 6,400 (1.6%) were called active. This list was built around the results that the source calls inconclusive (neither active nor inactive); the mix of calls is not that of the screen. Calls follow the shape of the dose curve; as a rule, active = well fitted inhibition curve with a large enough effect; inconclusive = small, poorly fitted or top-dose-only effect; inactive = no such curve, though single readings can be large or run the other way. Potencies of inconclusive entries are left out as doubtful fits.
# Target: Glucagon-like peptide 1 receptor (Homo sapiens) (UniProt P43220)
# Chain of UniProt P43220 (P43220 whole entry, looked up): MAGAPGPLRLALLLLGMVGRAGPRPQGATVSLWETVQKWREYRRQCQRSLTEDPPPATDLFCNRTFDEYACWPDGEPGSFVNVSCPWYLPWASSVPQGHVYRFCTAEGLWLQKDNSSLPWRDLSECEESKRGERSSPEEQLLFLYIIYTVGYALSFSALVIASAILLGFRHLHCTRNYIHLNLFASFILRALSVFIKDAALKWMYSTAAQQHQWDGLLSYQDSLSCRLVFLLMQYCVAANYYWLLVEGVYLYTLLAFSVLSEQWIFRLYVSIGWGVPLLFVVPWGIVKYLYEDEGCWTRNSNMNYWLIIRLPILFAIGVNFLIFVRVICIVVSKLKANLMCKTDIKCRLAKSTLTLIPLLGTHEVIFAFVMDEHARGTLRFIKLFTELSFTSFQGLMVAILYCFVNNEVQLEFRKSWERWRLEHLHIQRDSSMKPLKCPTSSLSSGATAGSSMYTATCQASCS
# Experiment: qHTS of GLP-1 Receptor Inverse Agonists (Inhibition Mode); also: nearly all actives have a fitted effect of over 55% in size
# Details: HEK293 GLP-1R CRE-luciferase, luminescence, 24 h, GLP-1R form is constitutively active; series mostly up to 38.3 µM
# Summary of the method: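 Luminescence readout: a drop in cAMP-driven luciferase signal flags inverse agonism at a constitutively active GLP-1R stably expressed in HEK293. Compound exposure lasted 24 hr at 37 deg C, 5% CO2.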
# Potency is read from the fitted curve at half-maximal effect; tags tell the direction and shape of the fitted curve.
row,SMILES,Potency
1,CCCOc1ccc(Oc2ccc(S(=O)(=O)N3CCN(C)CC3)cn2)cc1,"inconclusive [inhibitor, partial curve, poor fit]"
2,CCCCC(=O)NC(=S)Nc1nnn(CCC)n1,active: 11.2 µM
3,Cc1ccccc1-c1csc(C(C)(O)c2ccccc2)n1 (centres undefined),"inconclusive [inhibitor, single point]"
4,CNC(=S)Nc1ccc(C23CC4CC(CC(C4)C2)C3)cc1,"inconclusive [inhibitor, partial curve, poor fit]"
5,O=C(O)c1ccc(-c2nc3ccccc3s2)o1,"inconclusive [inhibitor, single point]"
6,Cc1ccc(NC(=O)Cn2nc(C)c3nn(-c4ccc(Cl)cc4)c(C)c3c2=O)cc1F,inactive
7,Cc1cccc(C)c1NC(=O)C(CCc1ccccc1)n1c(=O)c(-c2ccccc2)nc2ccccc21 (centres undefined),"inconclusive [inhibitor, single point]"
8,COc1ccc(CNC(=O)c2cnn(-c3ccccc3)c2-n2cccc2)cc1OC,inactive
9,COc1ccc(S(=O)(=O)N2CCOCC2)cc1NC(=O)CCNC(=O)c1ccc([N+](=O)[O-])cc1,"inconclusive [inhibitor, full curve, poor fit]"
10,O=C(Nc1ccc(-c2csc(-c3ccccc3)n2)cc1)c1ccccc1Cl,"inconclusive [inhibitor, partial curve, poor fit]"
11,Cc1nc(-c2ccccc2)sc1C(=O)O,inactive
12,CCOc1ccc(CNS(=O)(=O)c2ccc3c(c2)CC(C)N3C(C)=O)cc1OC (centres undefined),inactive
13,O=C(CN1C(=O)NC2(CCCC2)C1=O)Nc1cc(C(F)(F)F)ccc1N1CCCCC1,"inconclusive [inhibitor, partial curve, poor fit]"
14,CCOc1ccc(NC(=S)N(Cc2ccc(N(C)C)cc2)Cc2ccco2)cc1,"inconclusive [inhibitor, partial curve]"
15,Cc1ccc(-c2nnc(SCC(=O)NCc3ccccc3)o2)cc1,"inconclusive [inhibitor, single point]"
16,O=c1c2c(ncn2C2CCCC2)n(Cc2ccccc2)c(=O)n1CCOc1ccccc1,"inconclusive [inhibitor, single point]"
17,S=C(NC1CCCCC1)N1CCN(C2CCCCC2)CC1,"inconclusive [inhibitor, single point]"
18,O=S(=O)(c1ccc(NC(=S)Nc2ccc3c(c2)OCO3)cc1)N1CCOCC1,inactive
19,CCOc1ccc(-c2cc(C(=O)O)c3ccccc3n2)cc1,"inconclusive [inhibitor, single point]"
20,O=C(Nc1cccc(Cl)c1)N1CCN(C2c3ccccc3-c3ccccc32)CC1,"inconclusive [inhibitor, full curve]"
21,O=C(NCc1ccc(F)cc1)C(c1ccccc1)N(C(=O)c1csnn1)c1ccccc1 (centres undefined),inactive
22,CCN(CC)S(=O)(=O)c1ccc(NC(=O)c2c(C)oc3ncnc(N4CCCCC4)c23)cc1,"inconclusive [inhibitor, single point]"

row,SMILES,Potency
1,CN(Cc1ccc(Cl)cc1Cl)C(=O)c1cccc(S(=O)(=O)NCc2ccccc2)c1,"inconclusive [inhibitor, partial curve, poor fit]"
2,C=C(C)CSc1cc(C)nc2c(-c3ccccc3)c(C)nn12,"inconclusive [inhibitor, partial curve]"
3,COc1ccccc1NC(=O)N1CCN(c2nnc(C)c3c(C)n(-c4ccccc4)nc23)CC1,inactive
4,Cc1ccc(NC(C)C(=O)N/N=C/c2ccc([N+](=O)[O-])s2)cc1 (centres undefined),"inconclusive [inhibitor, single point]"
5,CCOC(=O)c1c(NC(=O)COc2ccc(Cl)cc2Cl)sc2c1CCCCC2,inactive
6,O=C(CCSc1ccccc1Cl)NNC(=O)c1ccncc1,inactive
7,CCN(CC)C(=O)c1[nH]cnc1C(=O)NCC(=O)OCc1ccccc1,inactive
8,CCOC(=O)c1sc(NS(=O)(=O)c2cc(C)ccc2C)nc1C,"inconclusive [inhibitor, single point]"
9,COc1ccccc1-c1nc(SCC(=O)Nc2ccccc2F)n[nH]1,"inconclusive [inhibitor, partial curve, poor fit]"
10,CC1Cc2cc(/C=C3/SC(N4CCC(C(N)=O)CC4)=NC3=O)ccc2O1 (centres undefined),"inconclusive [inhibitor, partial curve, poor fit]"
11,COc1ccc(Cl)cc1NC(=O)CN(C)C(=O)C1COc2ccccc2O1 (centres undefined),"inconclusive [inhibitor, partial curve, poor fit]"
12,Cc1ccc(C)c(S(=O)(=O)NCc2ccc(C(=O)N3CCN(c4ccccc4)CC3)cc2)c1,"inconclusive [inhibitor, partial curve, poor fit]"
13,CCOC(=O)c1cc2sccc2n1CC(=O)c1ccc2c(c1)OCCO2,"inconclusive [inhibitor, single point]"
14,CN(C)S(=O)(=O)c1cccc(C(=O)N(Cc2ccc(F)cc2)Cc2ccco2)c1,"inconclusive [inhibitor, single point]"
15,CN(C)c1ccc(P(=O)(COc2ccc([N+](=O)[O-])cc2)c2ccc(N(C)C)cc2)cc1,"inconclusive [inhibitor, partial curve, poor fit]"
16,COc1ccc(-n2c(Cc3cccn3C)nnc2SCC(=O)Nc2cc(C)cc(C)c2)cc1,"inconclusive [inhibitor, single point]"
17,Cc1ccc(C)c(N2CCN(S(=O)(=O)c3cc(C(=O)Nc4ccccc4C(F)(F)F)ccc3F)CC2)c1,"inconclusive [inhibitor, partial curve, poor fit]"
18,CCN(CC(=O)Nc1ccc(OC)cc1)CC(=O)Nc1ccc(Br)cc1F,"inconclusive [inhibitor, single point]"
19,COc1ccccc1C/C(N)=N/OC(=O)/C=C/c1ccccc1,"inconclusive [inhibitor, single point]"
20,CCc1nnc(NS(=O)(=O)c2ccc(NC(=O)c3cccc4ccccc34)cc2)s1,"inconclusive [inhibitor, single point]"
21,Cc1cccc(OCC(=O)Nc2ccccc2-c2ccccc2)c1,"inconclusive [inhibitor, single point]"
22,CCOC(=O)c1cc(CC)sc1NC(=O)COC(=O)c1cnccn1,inactive

row,SMILES,Potency
1,COc1nc2ccccc2nc1N1CCN(Cc2ccc3c(c2)OCO3)CC1,inactive
2,Cc1c(C(=O)C(=O)N2CC=C(c3ccccc3)CC2)c2ccccc2n1C,"inconclusive [inhibitor, partial curve, poor fit]"
3,O=C(Nc1ccccc1-c1nnn(CC(=O)N2CCc3ccccc3C2)n1)C1CCC1,"inconclusive [inhibitor, partial curve, poor fit]"
4,Cc1ccc(C)c(N(CC(=O)NCCc2ccccc2)C(=O)CCC(=O)Nc2ccccn2)c1,"inconclusive [inhibitor, partial curve, poor fit]"
5,O=C(C1=C(c2ccccc2)C(=O)c2ccccc2C1=O)c1ccccc1,"inconclusive [inhibitor, full curve, poor fit]"
6,Cc1ccc(OC(=O)c2c(C)nn(-c3ccccc3)c2C)cc1,"inconclusive [inhibitor, single point]"
7,Cc1occc1C(=O)N/N=C/c1cccs1,inactive
8,CCOC(=O)[C@]12CCC=C1N(Cc1cccc3ccccc13)C(=O)[C@H](CC(=O)NCc1cccc3ccccc13)C2,"inconclusive [inhibitor, partial curve, poor fit]"
9,O=C(NCCCCc1ccccc1)C1CC(c2cccc(F)c2)=NO1 (centres undefined),inactive
10,O=C(Nc1ccc(Cl)cc1)Nc1ccc(S(=O)(=O)Nc2ncccn2)cc1,inactive
11,CCN(CC)c1ccc(/C=N/N2C(C)CCCC2C)c(O)c1 (centres undefined),"inconclusive [inhibitor, partial curve, poor fit]"
12,Cc1ccc(F)c(C2C3C=CCC(c4cccc(-c5ccc(N(C)C)cc5)c4)C3C(=O)N2Cc2ccccc2)c1 (centres undefined),"inconclusive [inhibitor, single point]"
13,CC(C)c1ccccc1NC(=O)C(Cc1c[nH]c2ccccc12)NC(=O)OC(C)(C)C (centres undefined),"inconclusive [inhibitor, single point]"
14,Cc1c(CN(C)C)c2c(n1C)C(=O)c1ccc(Br)cc1-2,inactive
15,CCc1ccc(/C=N/NC(=O)c2cc(C)on2)s1,"inconclusive [inhibitor, single point]"
16,O=[N+]([O-])c1ccc(NN=Cc2cccc([N+](=O)[O-])c2)cc1,"inconclusive [inhibitor, partial curve, poor fit]"
17,COc1ccc(CC(=O)Nc2nc(OCC(F)(F)F)cnc2-c2ccc(Cl)cc2Cl)cc1,"inconclusive [inhibitor, partial curve, poor fit]"
18,Cc1ccc(S(=O)(=O)c2nc(-c3cccs3)oc2SCc2ccc(F)cc2)cc1,"inconclusive [inhibitor, single point]"
19,CNC(=O)N(O)C1N(/N=C/c2c(F)cccc2Cl)C(=S)SC1(C)C (centres undefined),"inconclusive [inhibitor, full curve, poor fit]"
20,Cc1ccc(NC(=O)c2ccc3c(O)c(S(=O)(=O)c4ccc(Cl)cc4)c(=O)[nH]c3c2)cc1,inactive
